What all share (experiment): co-IP; anti-HA immunoprecipitates (12CA5 with protein A-Sepharose, or F7 anti-HA-agarose when probing for Mst3 or Mst4; 1.5 h, 4°C) of lysates (1% Nonidet P-40, 0.135 M NaCl, 10% glycerol, 20 mM Tris pH 8.0) of HEK293 cells transfected with HA-striatins; endogenous partners by immunoblot, partner/HA-striatin ratio by chemilumimager against wild type; 50 mM NaF and 100 nM okadaic acid in the lysis buffer in the phosphorylation experiments
Background: In western blotting, separated proteins are transferred to a membrane and probed.

Assay [1] has as its target T1, HA-tagged wild-type striatin (human) (UniProt O43815).
T1 sequence: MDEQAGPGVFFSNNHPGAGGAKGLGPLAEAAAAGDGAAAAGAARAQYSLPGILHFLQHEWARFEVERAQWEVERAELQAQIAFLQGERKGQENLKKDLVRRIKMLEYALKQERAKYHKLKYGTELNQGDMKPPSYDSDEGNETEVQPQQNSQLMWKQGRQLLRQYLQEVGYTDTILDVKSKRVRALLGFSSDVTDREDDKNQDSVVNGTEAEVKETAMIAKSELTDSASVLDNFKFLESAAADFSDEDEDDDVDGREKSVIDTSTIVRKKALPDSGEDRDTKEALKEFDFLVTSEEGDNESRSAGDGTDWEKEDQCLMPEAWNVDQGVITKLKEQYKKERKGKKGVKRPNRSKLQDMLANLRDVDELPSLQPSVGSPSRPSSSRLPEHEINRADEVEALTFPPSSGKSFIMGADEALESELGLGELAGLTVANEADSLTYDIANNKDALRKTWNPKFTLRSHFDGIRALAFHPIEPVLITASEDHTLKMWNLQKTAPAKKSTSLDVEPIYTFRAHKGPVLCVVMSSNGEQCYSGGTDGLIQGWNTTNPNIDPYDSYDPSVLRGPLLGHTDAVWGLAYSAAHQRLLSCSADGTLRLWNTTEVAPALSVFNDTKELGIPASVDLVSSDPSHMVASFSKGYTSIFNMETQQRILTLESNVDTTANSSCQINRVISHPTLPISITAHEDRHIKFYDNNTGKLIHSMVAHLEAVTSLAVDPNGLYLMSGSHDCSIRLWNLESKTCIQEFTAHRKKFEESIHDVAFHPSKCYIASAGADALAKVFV

Assay [2] deals with T2, HA-tagged L84A/L94A/I102A striatin (human) (UniProt O43815).
T2 sequence: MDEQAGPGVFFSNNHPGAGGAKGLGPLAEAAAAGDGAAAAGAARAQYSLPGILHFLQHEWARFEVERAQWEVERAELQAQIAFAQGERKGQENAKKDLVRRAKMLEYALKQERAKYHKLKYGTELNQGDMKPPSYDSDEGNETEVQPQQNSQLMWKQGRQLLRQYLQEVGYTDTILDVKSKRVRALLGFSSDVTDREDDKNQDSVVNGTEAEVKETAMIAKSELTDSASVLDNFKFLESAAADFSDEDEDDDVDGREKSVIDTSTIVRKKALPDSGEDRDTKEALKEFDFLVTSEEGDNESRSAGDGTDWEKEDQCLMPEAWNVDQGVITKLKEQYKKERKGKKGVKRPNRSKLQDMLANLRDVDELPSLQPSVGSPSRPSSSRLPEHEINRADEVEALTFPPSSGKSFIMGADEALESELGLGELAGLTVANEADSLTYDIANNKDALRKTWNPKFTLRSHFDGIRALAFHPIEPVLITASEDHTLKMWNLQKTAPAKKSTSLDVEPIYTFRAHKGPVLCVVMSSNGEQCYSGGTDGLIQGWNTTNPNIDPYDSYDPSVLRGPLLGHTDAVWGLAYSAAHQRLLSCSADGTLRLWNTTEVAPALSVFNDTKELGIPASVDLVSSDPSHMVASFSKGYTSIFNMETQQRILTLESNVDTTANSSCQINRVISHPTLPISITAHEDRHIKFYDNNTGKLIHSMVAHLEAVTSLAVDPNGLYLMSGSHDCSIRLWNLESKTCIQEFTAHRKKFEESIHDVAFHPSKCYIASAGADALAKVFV

Assay [3] has as its target T3, HA-tagged Δ(53-66) striatin (human) (UniProt O43815).
T3 sequence: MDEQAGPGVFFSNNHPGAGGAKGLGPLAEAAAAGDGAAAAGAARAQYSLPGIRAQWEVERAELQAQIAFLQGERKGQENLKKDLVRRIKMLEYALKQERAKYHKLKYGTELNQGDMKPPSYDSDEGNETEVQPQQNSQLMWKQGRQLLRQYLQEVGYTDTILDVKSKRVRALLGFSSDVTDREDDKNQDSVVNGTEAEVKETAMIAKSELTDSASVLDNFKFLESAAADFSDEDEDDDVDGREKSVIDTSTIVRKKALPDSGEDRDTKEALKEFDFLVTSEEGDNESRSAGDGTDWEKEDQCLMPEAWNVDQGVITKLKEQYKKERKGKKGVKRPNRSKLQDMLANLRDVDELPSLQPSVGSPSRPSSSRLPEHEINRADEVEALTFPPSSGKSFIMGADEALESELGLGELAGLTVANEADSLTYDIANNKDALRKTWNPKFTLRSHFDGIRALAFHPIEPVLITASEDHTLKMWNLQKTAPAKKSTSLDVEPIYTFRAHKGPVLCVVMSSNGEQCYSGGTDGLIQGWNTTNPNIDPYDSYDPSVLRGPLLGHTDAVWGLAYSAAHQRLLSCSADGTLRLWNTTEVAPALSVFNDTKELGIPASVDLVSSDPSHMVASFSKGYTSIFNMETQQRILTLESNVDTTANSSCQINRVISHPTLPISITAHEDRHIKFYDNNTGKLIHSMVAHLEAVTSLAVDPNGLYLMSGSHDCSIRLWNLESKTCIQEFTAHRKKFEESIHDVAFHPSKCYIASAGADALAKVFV

No constants are given. Whether binding was seen depends on the method and setting. In cells and extracts the contact can be indirect. Some binding calls cover weakened binding; strength is not graded here. Sequences can lack the tags named with a protein.

B1: S/G2 nuclear autoantigen (SG2NA) (protein, UniProt Q13033 1-797)
chain: MDELAGGGGGGPGMAAPPRQQQGPGGNLGLSPGGNGAAGGGGPPASEGAGPAAGPELSRPQQYTIPGILHYIQHEWARFEMERAHWEVERAELQARIAFLQGERKGQENLKKDLVRRIKMLEYALKQERAKYHKLKYGTELNQGDLKMPTFESEETKDTEAPTAPQNSQLTWKQGRQLLRQYLQEVGYTDTILDVRSQRVRSLLGLSNSEPNGSVETKNLEQILNGGESPKQKGQEIKRSSGDVLETFNFLENADDSDEDEENDMIEGIPEGKDKHRMNKHKIGNEGLAADLTDDPDTEEALKEFDFLVTAEDGEGAGEARSSGDGTEWDKDDLSPTAEVWDVDQGLISKLKEQYKKERKGKKGVKRANRTKLYDMIADLGDDELPHIPSGIINQSRSASTRMTDHEGARAEEAEPITFPSGGGKSFIMGSDDVLLSVLGLGDLADLTVTNDADYSYDLPANKDAFRKTWNPKYTLRSHFDGVRALAFHPVEPVLVTASEDHTLKLWNLQKTVPAKKSASLDVEPIYTFRAHIGPVLSLAISSNGEQCFSGGIDATIQWWNMPSPSVDPYDTYEPNVLAGTLVGHTDAVWGLAYSGIKNQLLSCSADGTVRLWNPQEKLPCICTYNGDKKHGIPTSVDFIGCDPAHMVTSFNTGSAVIYDLETSQSLVILSSQVDSGLQSNNHINRVVSHPTLPVTITAHEDRHIKFFDNKTGKMIHSMVAHLDAVTSLAVDPNGIYLMSGSHDCSIRLWNLDSKTCVQEITAHRKKLDESIYDVAFHSSKAYIASAGADALAKVFV
In the case of B1, the figures for the binding entry in assay [1], in assay [2] and in assay [3] were “binds”, “binds” and “no binding”, respectively.

B2: Mob3/phocein (protein, UniProt Q9Y3A3 1-225)
chain: MVMAEGTAVLRRNRPGTKAQDFYNWPDESFDEMDSTLAVQQYIQQNIRADCSNIDKILEPPEGQDEGVWKYEHLRQFCLELNGLAVKLQSECHPDTCTQMTATEQWIFLCAAHKTPKECPAIDYTRHTLDGAACLLNSNKYFPSRVSIKESSVAKLGSVCRRIYRIFSHAYFHHRQIFDEYENETFLCHRFTKFVMKYNLMSKDNLIVPILEEEVQNSVSGESEA
Regarding B2, the binding result in assay [1], in assay [2] and in assay [3] was “binds” throughout.

Values taken from PMC3217859.
